Measured values reported in the antibiotic and cytotoxicity screens of Wong et al. (2023).
The other results are listed elsewhere or left out.

What was measured:
HSkMC = human skeletal muscle cells; test: cytotoxicity call (relative viability < 0.9); settings: 10 µM
S. aureus RN4220 = test: growth inhibition call (relative growth <= 0.2); settings: 50 µM

SMILES	cytotoxicity call (HSkMC)	growth inhibition call (S. aureus RN4220)
COc1ccccc1CNC(=O)C[C@@H]1C[C@H]2c3cc(NS(=O)(=O)c4ccc(F)cc4)ccc3O[C@H]2[C@@H](CO)O1	inactive	inactive
Cc1c(N2CCCC2)cc2c(c1-n1cccc1)C(C)(C)CC2(C)C	inactive	inactive
C[C@@H]1CN([C@@H](C)CO)S(=O)(=O)c2ccc(-c3ccc(C(=O)N(C)C)cc3)cc2O[C@H]1CN(C)C(=O)C1CCOCC1	inactive	inactive
C[C@@H]1CN([C@H](C)CO)C(=O)c2cc(C#Cc3ccncc3)cnc2O[C@@H]1CN(C)S(=O)(=O)c1ccccc1F	inactive	inactive
O=C(O)CC1CCOCC1	inactive	inactive
C[C@@H]1CCCCO[C@@H](CN(C)CC2CCCCC2)[C@H](C)CN([C@H](C)CO)C(=O)c2cc(NC(=O)c3ccccc3)ccc2O1	inactive	inactive
C[C@H]1CN([C@@H](C)CO)C(=O)c2cc(NS(=O)(=O)c3ccccc3)ccc2O[C@H]1CN(C)Cc1ccc(Cl)c(Cl)c1	inactive	inactive
C[C@@H]1CCCCO[C@@H](CN(C)C(=O)CCCN(C)C)[C@H](C)CN([C@H](C)CO)C(=O)c2cc(NC(=O)Nc3cccc4ccccc34)ccc2O1	inactive	inactive
C[C@@]1(c2ccc3c(c2)OCCO3)NC(=O)NC1=O	inactive	inactive
C[C@@H]1CCCCO[C@@H](CN(C)Cc2ccc3c(c2)OCO3)[C@@H](C)CN([C@@H](C)CO)C(=O)c2cc(NC(=O)C3CCCCC3)ccc2O1	inactive	inactive
C[C@H]1CN([C@@H](C)CO)C(=O)c2cc(C#Cc3cccnc3)cnc2O[C@@H]1CN(C)Cc1ccc(F)cc1	inactive	inactive
O=C(/C=C/c1ccc(O)c(O)c1)O[C@@H]1C[C@](O)(C(=O)O)C[C@@H](O)[C@H]1O	inactive	inactive
C[C@@H]1CCCCO[C@@H](CN(C)C(=O)c2ccccc2)[C@@H](C)CN([C@@H](C)CO)C(=O)c2cc(NS(=O)(=O)c3ccc(Cl)cc3)ccc2O1	inactive	inactive
C[C@@H]1CN([C@@H](C)CO)C(=O)Cc2cc(NC(=O)CCCCCC(=O)Nc3ccccc3N)ccc2O[C@@H]1CN(C)Cc1ccccc1	inactive	inactive
C[C@@H]1CCCCO[C@@H](CN(C)Cc2ccccc2)[C@@H](C)CN([C@H](C)CO)C(=O)c2cc(NC(=O)c3ccccc3)ccc2O1	inactive	inactive
C[C@H](CO)N1C[C@H](C)[C@@H](CN(C)S(=O)(=O)c2ccc(F)cc2)Oc2ccc(NC(=O)CCCN(C)C)cc2CC1=O	inactive	inactive
C[C@@H]1CCCCO[C@@H](CN(C)S(=O)(=O)c2ccccc2)[C@H](C)CN([C@H](C)CO)C(=O)c2cc(NC(=O)Nc3cccc4ccccc34)ccc2O1	inactive	inactive
C[C@H]1CN([C@@H](C)CO)S(=O)(=O)c2ccc(C#CCN(C)C)cc2O[C@H]1CN(C)C(=O)CN(C)C	inactive	inactive
NC1CCN(C(=O)NC2CCCCC2)CC1	inactive	inactive
COc1ccc(S(=O)(=O)N2C[C@@H](O)COC[C@H]3O[C@H](CC(=O)N[C@@H]4CCN(Cc5ccccc5)C4)CC[C@@H]32)cc1	inactive	inactive
C[C@@H]1CN([C@@H](C)CO)C(=O)Cc2cc(NS(=O)(=O)c3ccccc3)ccc2O[C@H]1CN(C)Cc1ccc(Oc2ccccc2)cc1	inactive	inactive
O=C(C[C@@H]1CC[C@@H]2[C@H](COC[C@@H](O)CN2S(=O)(=O)c2cccc(Cl)c2)O1)NC1Cc2ccccc2C1	inactive	inactive
C[C@@H]1CCCCO[C@H](CN(C)C(=O)Nc2cccc3ccccc23)[C@H](C)CN([C@@H](C)CO)C(=O)c2cc(NC(=O)Cc3ccccc3)ccc2O1	inactive	inactive
COc1ccc2c3c([nH]c2c1)[C@@H](CO)N(C[C@]13CCN(CC1)C(=O)CN(C)C)S(=O)(=O)C	inactive	inactive
C[C@H](CO)N1C[C@H](C)[C@@H](CN(C)C(=O)Nc2ccc3c(c2)OCO3)Oc2ncc(-c3ccncc3)cc2C1=O	inactive	inactive
COc1ccc(NC(=O)N(C)C[C@H]2Oc3ccc(NS(=O)(=O)c4cn(C)cn4)cc3CC(=O)N([C@H](C)CO)C[C@@H]2C)cc1	inactive	inactive
C[C@@H]1CN([C@@H](C)CO)C(=O)c2cc(NC(=O)Nc3ccccc3)ccc2O[C@@H](C)CCCCO[C@H]1CN(C)C(=O)OC(C)(C)C	inactive	inactive
Cc1ccc(S(=O)(=O)N(C)C[C@H]2OCCCC[C@@H](C)Oc3ccc(NC(=O)Cc4ccccc4)cc3C(=O)N([C@@H](C)CO)C[C@@H]2C)cc1	inactive	inactive
CC1(C)CC[C@]2(C(=O)O[C@@H]3O[C@H](CO[C@@H]4O[C@H](CO)[C@@H](O)[C@H](O)[C@H]4O)[C@@H](O)[C@H](O)[C@H]3O)CC[C@]3(C)C(=CC[C@H]4[C@@]5(C)CC[C@H](O[C@@H]6OC[C@H](O)[C@H](O)[C@H]6O)C(C)(C)[C@@H]5CC[C@]43C)[C@@H]2C1	inactive	inactive
